Assay results published in PubChem BioAssay AID1240 (Sanford-Burnham Center for Chemical Genomics, 2008).
In all, about 50,000 compounds went through this assay and about 800 (1.6%) showed an effect of 50% or more. The list shows a part of the results.

What follows are compounds tested against Bcl-2-like protein 10 (Homo sapiens) (UniProt Q9HD36) (assay: TR3 peptide-Bcl-B binding displacers, biochemical primary FP assay, phenotype converters (AID 1240;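 also: 0% = Bcl-B with tracer peptide and DMSO and 100% = tracer peptide lacking Bcl-B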)). Conditions: GST-Bcl-B / FITC-TR3 peptide fluorescence polarization; stronger effect = higher value; compound at 3.75 mg/L.
UniProt Q9HD36, sequence (Q9HD36 whole entry, looked up): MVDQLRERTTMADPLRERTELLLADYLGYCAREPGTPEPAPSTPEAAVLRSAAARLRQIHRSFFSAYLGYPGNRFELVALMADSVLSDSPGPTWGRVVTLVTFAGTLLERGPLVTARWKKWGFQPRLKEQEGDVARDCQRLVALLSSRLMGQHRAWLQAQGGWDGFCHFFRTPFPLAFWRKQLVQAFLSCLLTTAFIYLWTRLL

**Q.** How did the displacement turn out when `COc1cc(/C=C2/C(=O)NC(=O)N(c3ccccc3)C2=O)cc(Cl)c1O` was run?
**A.** 7.5%

**Q.** `c1ccc(CCCN2CCN(C3CCCCC3)CC2)cc1` was tested. Which displacement did it give?
**A.** -2.3%

**Q.** With `Cc1ccc(-c2nc3ccccc3c(=O)n2-c2cccnc2)cc1` as the compound, how does the displacement read?
**A.** -6.5%

**Q.** With `Cc1cc(/C=C2\C(=O)NC(=O)N(c3cccc(Br)c3)C2=O)c(C)n1C` as the compound, how does the displacement read?
**A.** 126%

**Q.** How did the displacement turn out when `O=[N+]([O-])c1ccc(NCCCN2CCOCC2)c2cccnc12` was run?
**A.** 15.1%

**Q.** How did the displacement turn out when `COc1ccc(CCNCc2cccc(Br)c2)cc1OC` was run?
**A.** 11.9%

**Q.** How did the displacement turn out when `Cc1[nH]c2ccc(S(=O)(=O)O)cc2c1CCN` was run?
**A.** 3.7%

**Q.** Which displacement does the source give for `Cc1cc(Cl)ccc1OCC(=O)N1CCN(C)CC1` here?
**A.** -6.7%

**Q.** `O=C(NC(O)C(Cl)(Cl)Cl)C1CC=CCC1` (centres undefined) was tested. Which displacement did it give?
**A.** -1%

**Q.** With `O=[N+]([O-])c1cccc(CN2CCN(Cc3cccc(Br)c3)CC2)c1` as the compound, how does the displacement read?
**A.** 8%

**Q.** Which displacement does the source give for `CC(C)N1CCN(Cc2cccc(Br)c2)CC1` here?
**A.** -4.4%

**Q.** For `CCCCCP(=O)(O)c1ccccc1`, which displacement is on record?
**A.** -11%

**Q.** For `O=C1NC(=O)C(=Cc2cccc(O)c2)C(=O)N1`, which displacement is on record?
**A.** -4.9%

**Q.** For `COc1ccccc1CN1CCNCC1`, which displacement is on record?
**A.** 1.8%

**Q.** For `Nc1ccc(Cc2ccc(N)c(Cl)c2)cc1Cl`, which displacement is on record?
**A.** -0.7%

**Q.** How did the displacement turn out when `Cc1cccc(C(=O)NC(Oc2ccccc2Cl)C(Cl)(Cl)Cl)c1` (centres undefined) was run?
**A.** 11.7%

**Q.** Which displacement does the source give for `CCOC(=O)c1ccc(-c2ccc(C=C3C(=O)NC(=S)NC3=O)o2)cc1` here?
**A.** -6.7%

**Q.** Which displacement does the source give for `CC(C)C1C(=O)NC(=S)N(c2ccccc2)C1=O` (centres undefined) here?
**A.** -6.5%

**Q.** For `Clc1ccc(CCNCc2ccncc2)c(Cl)c1`, which displacement is on record?
**A.** 6.3%

**Q.** How did the displacement turn out when `COc1cc(/C=C2\C(=O)NC(=O)N(c3ccc(Br)cc3)C2=O)ccc1O` was run?
**A.** -19.7%

**Q.** `COc1ccc(C(c2c(O)c3ccccc3oc2=O)c2c(O)c3ccccc3oc2=O)cc1CSc1ccccn1` was tested. Which displacement did it give?
**A.** -1.3%

**Q.** `CCC(C)N1CCN(Cc2cccc(OC)c2OC)CC1` (centres undefined) was tested. Which displacement did it give?
**A.** -4.1%

**Q.** `O=c1c2ccccc2nc(-c2ccc([N+](=O)[O-])cc2)n1-c1ccccc1` was tested. Which displacement did it give?
**A.** 2%

**Q.** Which displacement does the source give for `O=[N+]([O-])c1cccc(-c2cn(-c3ccccc3)c3[n+]2CCCS3)c1` here?
**A.** 4.1%

**Q.** With `CC(=O)OC1(c2ccccc2)CC(C)CN(C(C)(C)C)C1` (centres undefined) as the compound, how does the displacement read?
**A.** 2.6%

**Q.** With `Cc1cccc(N2C(=O)NC(=O)C(=Cc3ccco3)C2=O)c1` as the compound, how does the displacement read?
**A.** 12.2%

**Q.** For `Cc1cccc(OP(=O)(Oc2ccccc2)Oc2cccc(C)c2)c1`, which displacement is on record?
**A.** 16.4%

**Q.** `CN1CCN(c2ccc([N+](=O)[O-])c(N3CCN(C)CC3)c2Cl)CC1` was tested. Which displacement did it give?
**A.** 1.2%

**Q.** For `Cc1ccc(S(=O)(=O)N2CCN(/C(N)=N/[N+](=O)[O-])CC2)cc1`, which displacement is on record?
**A.** 13.8%

**Q.** With `Cc1cc(OCc2ccccc2)c2c3c(c(=O)oc2c1)CCCC3` as the compound, how does the displacement read?
**A.** -3%

**Q.** Which displacement does the source give for `CCc1ccc(/C=C2/C(=O)NC(=O)N(c3ccc(OC)cc3)C2=O)cc1` here?
**A.** -18.1%

**Q.** How did the displacement turn out when `Cn1cccc1/C=C1/C(=O)NC(=S)N(c2ccc(Cl)cc2)C1=O` was run?
**A.** 20.8%

**Q.** How did the displacement turn out when `COc1ccccc1-n1c(Cc2ccccc2)nc2ccccc2c1=O` was run?
**A.** -13.5%

**Q.** For `O=C1NC(=O)C(=Cc2cccc(Cl)c2)C(=O)N1`, which displacement is on record?
**A.** -5.3%

**Q.** For `CN1CC[C@@](O)(c2ccccc2)[C@@H]2CCC[C@@H]21`, which displacement is on record?
**A.** 1.7%

**Q.** `CCCCCCOC(=O)C1CN1C(Cc1ccccc1)C(=O)OC` (centres undefined) was tested. Which displacement did it give?
**A.** 14.4%

**Q.** With `O=C(c1cccs1)C1CN2CCC1CC2` (centres undefined) as the compound, how does the displacement read?
**A.** 14.6%

**Q.** How did the displacement turn out when `COc1ccc(-n2c(/C=C/c3ccco3)nc3ccccc3c2=O)cc1` was run?
**A.** -27.1%

**Q.** How did the displacement turn out when `COc1ccc(OP(=O)(Oc2ccccc2)Oc2ccc(OC)cc2)cc1` was run?
**A.** 5%

**Q.** For `O=c1c2ccccc2nc(-c2ccc([N+](=O)[O-])cc2)n1-c1cccc(Cl)c1`, which displacement is on record?
**A.** -5.2%

**Q.** Which displacement does the source give for `Cc1cc(OCC(=O)OC(C)(C)C)c2c3c(c(=O)oc2c1)CCC3` here?
**A.** 10.1%

**Q.** How did the displacement turn out when `CC(=O)c1ccc(OC(=O)Cc2ccccc2)cc1` was run?
**A.** 14.1%

**Q.** How did the displacement turn out when `CN1C(=O)NC(=O)/C(=C/c2ccc(Br)o2)C1=O` was run?
**A.** 2.2%

**Q.** `COc1ccccc1N1CCN(C(=O)C(O)(c2ccccc2)c2ccccc2)CC1` was tested. Which displacement did it give?
**A.** 0.5%

**Q.** For `O=c1[nH]c(=O)n(-c2ccccc2)c(O)c1N=Nc1ccc(Br)cc1`, which displacement is on record?
**A.** 120%

**Q.** With `C=CCc1cc(/C=C2\C(=O)NC(=O)N(c3cc(C)cc(C)c3)C2=O)cc(OCC)c1O` as the compound, how does the displacement read?
**A.** -6.6%

**Q.** Which displacement does the source give for `Cc1[nH]c2cc(S(=O)(=O)O)c(Oc3ccccc3)cc2c1CCN` here?
**A.** 11.9%

**Q.** `COc1cc(CN2CCN(C(=O)Cc3ccccc3)CC2)cc(OC)c1O` was tested. Which displacement did it give?
**A.** 1.6%

**Q.** With `O=C(Cn1c[n+]([N-][N+](=O)[O-])cn1)Nc1ccc(NC(=O)Cn2c[n+]([N-][N+](=O)[O-])cn2)cc1` as the compound, how does the displacement read?
**A.** 59.6%

**Q.** For `C[C@@H]1CC[C@@]2(NC1)OC1C[C@H]3C4CC=C5CC(O)CCC5(C)C4CCC3(C)C1[C@@H]2C` (some centres undefined), which displacement is on record?
**A.** -6.6%

**Q.** `CCCC1C(=O)NC(=S)N(c2ccccc2)C1=O` (centres undefined) was tested. Which displacement did it give?
**A.** -15.5%

**Q.** For `O=c1c2ccccc2nc(-c2cccs2)n1-c1cnccn1`, which displacement is on record?
**A.** -0.8%

**Q.** `N#CC1=C(N)Oc2c(c(=O)oc3ccccc23)C1c1ccccc1` (centres undefined) was tested. Which displacement did it give?
**A.** 0%

**Q.** With `C=CCN1C(=O)NC(=O)/C(=C/c2c3ccccc3cc3ccccc23)C1=O` as the compound, how does the displacement read?
**A.** -7.2%

**Q.** For `O=[N+]([O-])c1ccc(NCCNCCO)c2ncccc12`, which displacement is on record?
**A.** -26%

**Q.** For `CCc1ccc(N2C(=O)NC(=O)/C(=C/C=C/c3ccco3)C2=O)cc1`, which displacement is on record?
**A.** 8%

**Q.** Which displacement does the source give for `Cc1ccc(/C=C2/C(=O)NC(=O)N(c3ccc(Cl)cc3)C2=O)o1` here?
**A.** 36.2%

**Q.** How did the displacement turn out when `CN1C(=O)C(=Cc2ccccc2Cl)C(=O)N(C)C1=O` was run?
**A.** -0.3%

**Q.** Which displacement does the source give for `O=C(Cc1ccccc1)N1CCN(Cc2ccccc2)CC1` here?
**A.** 11.6%

**Q.** With `COc1ccc(Br)cc1CN1CCNCC1` as the compound, how does the displacement read?
**A.** -22.2%

**Q.** `COc1cccc(CCNCc2c(F)cccc2F)c1` was tested. Which displacement did it give?
**A.** 3.2%

**Q.** With `COc1ccc(Br)cc1CN1CCN(C(=O)COc2ccccc2)CC1` as the compound, how does the displacement read?
**A.** 2.5%

**Q.** With `O=C(Nc1ccccc1)N1CNC(=N[N+](=O)[O-])NC1` as the compound, how does the displacement read?
**A.** -1.7%

**Q.** Which displacement does the source give for `CN1C(=O)C(=Cc2ccc(-c3cccc(C(=O)O)c3)o2)C(=O)N(C)C1=O` here?
**A.** 13%

**Q.** How did the displacement turn out when `O=C(Nc1ccc(Cl)c(-c2nc3ncccc3o2)c1)c1cccc(OCc2ccccc2)c1` was run?
**A.** -2.6%

**Q.** Which displacement does the source give for `O=C1NC(=S)NC(=O)C1=Cc1ccc(O)cc1` here?
**A.** -3.4%

**Q.** With `CC12CN3CC(C)(CN(C1)C31CCCC1)C2O` (centres undefined) as the compound, how does the displacement read?
**A.** -4.8%

**Q.** With `C1=C(c2ccccc2)Nc2nonc2N=C1c1ccccc1` as the compound, how does the displacement read?
**A.** -1.1%

**Q.** `CN1CCN(/N=C/c2cccnc2)CC1` was tested. Which displacement did it give?
**A.** 0.7%

**Q.** With `Cc1ccc(-c2nc3ccccc3c(=O)n2-c2nccs2)cc1` as the compound, how does the displacement read?
**A.** -0.6%

**Q.** For `CC1(C)CN1S(=O)(=O)c1ccccc1` (centres undefined), which displacement is on record?
**A.** -39.9%

**Q.** For `COc1cc(C=C2C(=O)N(C)C(=O)N(C)C2=O)ccc1OCCOc1ccccc1`, which displacement is on record?
**A.** 54.3%

**Q.** Which displacement does the source give for `COc1ccc(CN2CCN(Cc3cc(Br)ccc3O)CC2)cc1` here?
**A.** 13.1%

**Q.** For `CN1CCN(c2ccc([N+](=O)[O-])c(NC3CC3)c2)CC1`, which displacement is on record?
**A.** 9.7%
